According to publication PMC4336329 (PLoS ONE, 2015):
About 14,000 (4.5%) of roughly 310,000 compounds showed an effect of 50% or more. Effects have a minus sign here. The list shows a part of the results.

These compounds were tested against human ether-à-go-go-related gene (hERG) potassium channel (human, UniProt Q12809) (assay: primary screen, population patch clamp on CHO cells stably expressing hERG).
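Further: peak tail current of the secondary pulse compared with the same well before compound.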

human ether-à-go-go-related gene (hERG) potassium channel, sequence (Q12809 whole entry, looked up): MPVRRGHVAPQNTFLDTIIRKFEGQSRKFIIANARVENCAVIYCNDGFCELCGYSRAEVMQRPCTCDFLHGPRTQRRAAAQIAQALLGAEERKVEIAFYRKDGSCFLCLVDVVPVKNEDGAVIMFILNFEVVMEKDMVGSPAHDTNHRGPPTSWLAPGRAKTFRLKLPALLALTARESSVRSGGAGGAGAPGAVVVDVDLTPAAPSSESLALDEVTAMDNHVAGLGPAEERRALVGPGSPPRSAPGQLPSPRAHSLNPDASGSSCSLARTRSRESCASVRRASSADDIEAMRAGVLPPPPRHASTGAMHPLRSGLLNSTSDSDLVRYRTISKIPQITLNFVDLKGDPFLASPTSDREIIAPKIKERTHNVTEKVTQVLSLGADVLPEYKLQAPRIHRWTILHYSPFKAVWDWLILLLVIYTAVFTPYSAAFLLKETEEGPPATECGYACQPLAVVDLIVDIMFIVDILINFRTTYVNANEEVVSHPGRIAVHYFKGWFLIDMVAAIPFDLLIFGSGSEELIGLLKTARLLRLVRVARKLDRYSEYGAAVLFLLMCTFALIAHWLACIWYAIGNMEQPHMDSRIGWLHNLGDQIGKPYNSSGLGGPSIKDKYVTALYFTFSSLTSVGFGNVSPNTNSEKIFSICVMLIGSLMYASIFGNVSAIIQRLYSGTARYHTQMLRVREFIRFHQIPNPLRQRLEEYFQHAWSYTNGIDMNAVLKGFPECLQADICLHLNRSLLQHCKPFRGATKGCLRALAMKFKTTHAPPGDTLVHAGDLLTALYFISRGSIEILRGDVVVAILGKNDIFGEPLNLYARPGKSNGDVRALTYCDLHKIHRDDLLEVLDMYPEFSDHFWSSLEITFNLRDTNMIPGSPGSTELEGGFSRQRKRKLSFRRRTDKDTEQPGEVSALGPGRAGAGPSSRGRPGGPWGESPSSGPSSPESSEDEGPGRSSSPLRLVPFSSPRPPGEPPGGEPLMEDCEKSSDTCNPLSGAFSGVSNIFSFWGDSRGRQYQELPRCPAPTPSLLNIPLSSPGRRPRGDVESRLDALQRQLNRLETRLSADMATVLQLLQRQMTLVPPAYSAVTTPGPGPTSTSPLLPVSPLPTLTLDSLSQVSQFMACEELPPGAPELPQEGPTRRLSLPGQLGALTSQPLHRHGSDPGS

SMILES	hERG current change (%, negative = inhibition) at 10uM [%]
COc1ccccc1NC(=O)C1=C(C)Nc2nc(-c3ccc(N(C)C)cc3)nn2C1c1ccncc1 (stereo not drawn)	-19
Cc1ccc(C(=O)NC(=S)Nc2cccnc2Cl)cc1	-37.7
CCn1c(=O)c(=O)[nH]c2cc(C(=O)NC(C)c3ccc(S(N)(=O)=O)cc3)ccc21 (stereo not drawn)	3.47
O=C(c1cccc(C(F)(F)F)c1)N1CCc2c([nH]c3ccccc23)C1C(F)(F)F (stereo not drawn)	2.05
CCOC(=O)[C@H]1[C@H]2COc3ccc(Cl)cc3[C@@H]2N2C(=O)CN(Cc3ccc(OC)cc3)C(=O)[C@@]12C	-5.65
CC(=O)Nc1ccc(NS(=O)(=O)c2cccc3nonc23)cc1	23.9
COC(=O)c1[nH]c(C)c(/C(O)=C2\C(=O)C(=O)N(CCN(C)C)C2c2ccco2)c1C (stereo not drawn)	5.34
CC1CCCN(c2nc3ccccc3nc2C(C#N)S(=O)(=O)c2cccs2)C1 (stereo not drawn)	4.13
Cc1ccc(C)c(NS(=O)(=O)c2ccccc2C)c1	-21.1
O=C(NC(Cc1ccccc1)C(=O)O)C1CCN(S(=O)(=O)c2cccc(C(F)(F)F)c2)CC1 (stereo not drawn)	19.2
CCOC(=O)c1ccc(COC(=O)c2cc(=O)[nH]c3ccccc23)o1	-1.04
CC1=NNC(=O)C1CC(=O)N/N=C/c1sccc1C (stereo not drawn)	4.63
Cc1ccc(OCC(=O)NNC(=O)C2CCC2)cc1C	11.9
COc1ccc2nc(SCC(=O)/C(C#N)=C(\C)N)[nH]c2c1	-11.9
Cc1ccc(S(=O)(=O)Nc2c(C)n(C)n(-c3ccccc3)c2=O)cc1C(=O)NCc1ccccc1	-3.31
CCN(CC)c1ccc(N=Cc2c(O)n(Cc3ccco3)c(=O)[nH]c2=O)cc1	3.93
Cc1nnc(SCC(=O)Nc2nccs2)[nH]c1=O	14
CCCCNC(=O)CN(c1cccc(Br)c1)S(C)(=O)=O	-4.67
COc1ccc(C(=O)N2CCOC23CCN(c2ncccn2)CC3)cc1	6.88
CCS(=O)(=O)n1nc(NCc2cccc(OC)c2)nc1NCc1cccc(OC)c1	-21.1
CC(C)CC(=O)C1CCCN(C(=O)c2ccc3oc(Cc4ccccc4)nc3c2)C1 (stereo not drawn)	-18.4
Cc1cc(C)c2c(NC(N)=S)n[nH]c2n1	9.01
Cc1cccc(S(=O)(=O)N2CCCc3ccccc32)c1	22.1
CCN(CC)C(=O)COc1coc(CN2CCN(c3ccc(F)cc3)CC2)cc1=O	1.88
